{
  "source": "the supplement of paper PMC8728848",
  "binders": {"B1": {"name": "FBG5 (Homo sapiens), Q8NI29 (protein)", "chain": "MGASVSRGRAARVPAPEPEPEEALDLSQLPPELLLVVLSHVPPRTLLGRCRQVCRGWRALVDGQALWLLILARDHGATGRALLHLARSCQSPARNARPCPLGRFCARRPIGRNLIRNPCGQEGLRKWMVQHGGDGWVVEENRTTVPGAPSQTCFVTSFSWCCKKQVLDLEEEGLWPELLDSGRIEICVSDWWGARHDSGCMYRLLVQLLDANQTVLDKFSAVPDPIPQWNNNACLHVTHVFSNIKMGVRFVSFEHRGQDTQFWAGHYGARVTNSSVIVRVRLS"}},
  "assay_in_all_cases": "glycan array binding signal (z-score within array); higher = stronger binding",
  "conditions_in_all_cases": "glycan notation: IUPAC condensed, linker removed",
  "key": {"Fuc(a1-2)Gal": {"molecular_target": "Fuc(a1-2)Gal", "in_short": "(§1)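 Columns mapping to the same glycan were averaged after glycan names were converted to IUPAC-condensed notation. The data come from 3228 arrays in the Consortium for Functional Glycomics database, limited to those with an available protein sequence. Binding is reported as a within-array Z-score averaged across arrays of one protein sequence and across linkers.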"}, "Fuc(a1-2)Gal(b1-3)GalNAc": {"molecular_target": "Fuc(a1-2)Gal(b1-3)GalNAc", "in_short": "as §1"}, "[1]": {"molecular_target": "Fuc(a1-2)Gal(b1-3)GalNAc(b1-3)Gal", "in_short": "as §1"}, "[2]": {"molecular_target": "Fuc(a1-2)Gal(b1-3)GalNAc(b1-3)Gal(a1-4)Gal(b1-4)Glc", "in_short": "as §1"}, "[3]": {"molecular_target": "Fuc(a1-2)Gal(b1-3)GalNAc(b1-3)Gal(b1-4)Glc", "in_short": "as §1"}, "[4]": {"molecular_target": "Fuc(a1-2)Gal(b1-3)GalNAc(b1-4)[Neu5Ac(a2-3)]Gal(b1-4)Glc", "in_short": "as §1"}, "[5]": {"molecular_target": "Fuc(a1-2)Gal(b1-3)[Fuc(a1-4)]GlcNAc", "in_short": "as §1"}, "Fuc(a1-2)Gal(b1-4)Glc": {"molecular_target": "Fuc(a1-2)Gal(b1-4)Glc", "in_short": "as §1"}, "Fuc(a1-2)Gal(b1-4)GlcNAc": {"molecular_target": "Fuc(a1-2)Gal(b1-4)GlcNAc", "in_short": "as §1"}, "[6]": {"molecular_target": "Fuc(a1-2)Gal(b1-4)GlcNAc(b1-3)Gal(b1-4)GlcNAc", "in_short": "as §1"}, "[7]": {"molecular_target": "Fuc(a1-2)Gal(b1-4)GlcNAc(b1-3)Gal(b1-4)GlcNAc(b1-3)Gal(b1-4)GlcNAc", "in_short": "as §1"}, "[8]": {"molecular_target": "Fuc(a1-2)Gal(b1-4)[Fuc(a1-3)]GalNAc(b1-3)Gal(b1-4)[Fuc(a1-3)]GlcNAc", "in_short": "as §1"}, "[9]": {"molecular_target": "Fuc(a1-2)Gal(b1-4)[Fuc(a1-3)]GalNAc(b1-3)Gal(b1-4)[Fuc(a1-3)]GlcNAc(b1-3)Gal(b1-4)[Fuc(a1-3)]GalNAc", "in_short": "as §1"}, "[10]": {"molecular_target": "Fuc(a1-2)Gal(b1-4)[Fuc(a1-3)]GlcNAc", "in_short": "as §1"}, "Fuc(a1-2)GlcNAc": {"molecular_target": "Fuc(a1-2)GlcNAc", "in_short": "as §1"}, "Fuc(a1-2)[Gal(a1-3)]Gal": {"molecular_target": "Fuc(a1-2)[Gal(a1-3)]Gal", "in_short": "as §1"}, "[11]": {"molecular_target": "Fuc(a1-2)[Gal(a1-3)]Gal(b1-3)GlcNAc", "in_short": "as §1"}, "[12]": {"molecular_target": "Fuc(a1-2)[Gal(a1-3)]Gal(b1-4)Glc", "in_short": "as §1"}, "[13]": {"molecular_target": "Fuc(a1-2)[Gal(a1-3)]Gal(b1-4)GlcNAc", "in_short": "as §1"}, "[14]": {"molecular_target": "Fuc(a1-2)[Gal(a1-3)]Gal(b1-4)[Fuc(a1-3)]GlcNAc", "in_short": "as §1"}, "[15]": {"molecular_target": "Fuc(a1-2)[Gal(a1-4)]Gal(b1-4)GalNAc", "in_short": "as §1"}, "[16]": {"molecular_target": "Fuc(a1-2)[GalNAc(a1-3)]Gal", "in_short": "as §1"}, "[17]": {"molecular_target": "Fuc(a1-2)[GalNAc(a1-3)]Gal(b1-3)GlcNAc", "in_short": "as §1"}, "[18]": {"molecular_target": "Fuc(a1-2)[GalNAc(a1-3)]Gal(b1-4)Glc", "in_short": "as §1"}, "[19]": {"molecular_target": "Fuc(a1-2)[GalNAc(a1-3)]Gal(b1-4)GlcNAc", "in_short": "as §1"}, "[20]": {"molecular_target": "Fuc(a1-2)[GalNAc(a1-3)]Gal(b1-4)[Fuc(a1-3)]GlcNAc", "in_short": "as §1"}, "[21]": {"molecular_target": "Fuc(a1-2)[GalNAc(a1-4)]Gal(b1-4)GlcNAc", "in_short": "as §1"}, "Fuc(a1-3)GlcNAc": {"molecular_target": "Fuc(a1-3)GlcNAc", "in_short": "as §1"}, "[22]": {"molecular_target": "Fuc(a1-3)[Gal(b1-4)]GlcNAc", "in_short": "as §1"}, "[23]": {"molecular_target": "Fuc(a1-3)[Gal(b1-4)]GlcNAc(b1-4)Gal(b1-4)[Fuc(a1-3)]GlcNAc", "in_short": "as §1"}},
  "note": "This is one part of the list.",
  "data": [
    {"binder": "B1", "values": [
      {"measurement": "glycan array binding signal (z-score)", "setting": "Fuc(a1-2)Gal", "value": 0.101},
      {"measurement": "glycan array binding signal (z-score)", "setting": "Fuc(a1-2)Gal(b1-3)GalNAc", "value": 0.003},
      {"measurement": "glycan array binding signal (z-score)", "setting": "[1]", "value": 0.14},
      {"measurement": "glycan array binding signal (z-score)", "setting": "[2]", "value": 0.044},
      {"measurement": "glycan array binding signal (z-score)", "setting": "[3]", "value": -0.166},
      {"measurement": "glycan array binding signal (z-score)", "setting": "[4]", "value": -0.145},
      {"measurement": "glycan array binding signal (z-score)", "setting": "[5]", "value": -0.097},
      {"measurement": "glycan array binding signal (z-score)", "setting": "Fuc(a1-2)Gal(b1-4)Glc", "value": 0.099},
      {"measurement": "glycan array binding signal (z-score)", "setting": "Fuc(a1-2)Gal(b1-4)GlcNAc", "value": 0.159},
      {"measurement": "glycan array binding signal (z-score)", "setting": "[6]", "value": 0.235},
      {"measurement": "glycan array binding signal (z-score)", "setting": "[7]", "value": 0.126},
      {"measurement": "glycan array binding signal (z-score)", "setting": "[8]", "value": 0.257},
      {"measurement": "glycan array binding signal (z-score)", "setting": "[9]", "value": 0.353},
      {"measurement": "glycan array binding signal (z-score)", "setting": "[10]", "value": 0.173},
      {"measurement": "glycan array binding signal (z-score)", "setting": "Fuc(a1-2)GlcNAc", "value": 0.024},
      {"measurement": "glycan array binding signal (z-score)", "setting": "Fuc(a1-2)[Gal(a1-3)]Gal", "value": -0.143},
      {"measurement": "glycan array binding signal (z-score)", "setting": "[11]", "value": -0.211},
      {"measurement": "glycan array binding signal (z-score)", "setting": "[12]", "value": -0.211},
      {"measurement": "glycan array binding signal (z-score)", "setting": "[13]", "value": -0.173},
      {"measurement": "glycan array binding signal (z-score)", "setting": "[14]", "value": 0.248},
      {"measurement": "glycan array binding signal (z-score)", "setting": "[15]", "value": -0.19},
      {"measurement": "glycan array binding signal (z-score)", "setting": "[16]", "value": -0.147},
      {"measurement": "glycan array binding signal (z-score)", "setting": "[17]", "value": 0.149},
      {"measurement": "glycan array binding signal (z-score)", "setting": "[18]", "value": 0.967},
      {"measurement": "glycan array binding signal (z-score)", "setting": "[19]", "value": -0.085},
      {"measurement": "glycan array binding signal (z-score)", "setting": "[20]", "value": -0.056},
      {"measurement": "glycan array binding signal (z-score)", "setting": "[21]", "value": -0.16},
      {"measurement": "glycan array binding signal (z-score)", "setting": "Fuc(a1-3)GlcNAc", "value": 0.417},
      {"measurement": "glycan array binding signal (z-score)", "setting": "[22]", "value": -0.107},
      {"measurement": "glycan array binding signal (z-score)", "setting": "[23]", "value": 0.032}
    ]}
  ]
}
